Measurements as given in PubChem BioAssay AID1460 (National Center for Advancing Translational Sciences (NCATS), 2008).
The campaign covered roughly 270,000 compounds. About 5,800 (2.1%) were called active. The inconclusive results got no clear call from the source; some entries with a clear call stand among them for comparison. Calls follow the shape of the dose curve; as a rule, active = well fitted inhibition curve with a large enough effect; inconclusive = small, poorly fitted or top-dose-only effect; inactive = flat fitted curve, though single readings scatter. Potencies beside an inconclusive call are fits to weak or partial responses and may not hold up.

Each compound was assayed against Microtubule-associated protein tau (Homo sapiens) (UniProt P10636) (assay: qHTS for Inhibitors of Tau Fibril Formation, Thioflavin T Binding). Details: recombinant tau K18 P301L, heparin-induced fibrillization, ThT fluorescence; series mostly up to 57.4 µM; activity, negative = inhibition: at the top concentration.
Chain of UniProt P10636 (P10636 whole entry, looked up): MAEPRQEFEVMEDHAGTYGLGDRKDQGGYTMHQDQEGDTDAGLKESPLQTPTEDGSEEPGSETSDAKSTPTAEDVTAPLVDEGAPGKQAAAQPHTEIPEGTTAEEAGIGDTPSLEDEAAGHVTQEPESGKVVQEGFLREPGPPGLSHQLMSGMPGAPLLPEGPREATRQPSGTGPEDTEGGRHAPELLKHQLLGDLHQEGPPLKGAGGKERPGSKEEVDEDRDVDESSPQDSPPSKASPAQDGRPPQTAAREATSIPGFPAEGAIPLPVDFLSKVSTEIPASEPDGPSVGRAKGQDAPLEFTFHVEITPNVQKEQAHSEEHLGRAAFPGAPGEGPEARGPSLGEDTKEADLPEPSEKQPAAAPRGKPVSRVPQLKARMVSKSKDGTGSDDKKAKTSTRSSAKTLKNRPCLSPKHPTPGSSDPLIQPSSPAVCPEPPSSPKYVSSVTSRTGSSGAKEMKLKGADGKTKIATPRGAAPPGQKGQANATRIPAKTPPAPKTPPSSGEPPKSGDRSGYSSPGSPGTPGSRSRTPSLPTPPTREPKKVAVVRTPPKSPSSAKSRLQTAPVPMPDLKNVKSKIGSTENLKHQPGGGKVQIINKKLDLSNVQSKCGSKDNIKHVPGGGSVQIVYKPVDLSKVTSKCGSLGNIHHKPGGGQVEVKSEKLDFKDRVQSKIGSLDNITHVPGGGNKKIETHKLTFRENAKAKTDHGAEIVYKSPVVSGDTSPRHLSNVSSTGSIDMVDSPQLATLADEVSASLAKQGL
Method in brief: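 Using a mix of unlabeled (15 uM) and Alexa 594-labeled (0.24 uM) tau K18 P301L, heparin-triggered fibrillization over 6 hr at 37 C was scored by ThT fluorescence.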
% is scaled to controls: 0 for no effect and ±100 for the full control effect; potency is read from the fitted curve at half-maximal effect; tags tell the direction and shape of the fitted curve.
Also: nearly all actives have a fitted effect of over 55% in size.

| Structure (SMILES) | Potency | activity, negative = inhibition |
| --- | --- | --- |
| N#Cc1c(=O)c2nc(NCCCO)ncc2n2c(=O)c3ccccc3[nH]c12 | inconclusive: 15.8 µM [inhibitor, partial curve] | – |
| COc1ccc(Oc2nc3c(c(=O)n(C)c(=O)n3C)n2Cc2ccc(Cl)cc2Cl)cc1 | inconclusive: 8.91 µM [inhibitor, partial curve] | – |
| Cc1ccc(S(=O)(=O)N2CCc3ccccc3C2CN2C(=O)c3ccccc3C2=O)cc1 (stereo not given) | – | inactive: -7.01% |
| CCOC(=O)C1CCCN(C(=O)c2cc(Nc3ccc(OC)cc3OC)nc3ccccc23)C1 (stereo not given) | inconclusive: 14.1 µM [inhibitor, partial curve] | – |
| Cc1nc2cc(NC(=O)Nc3ccccc3Cl)ccc2n1C | inconclusive: 31.6 µM [inhibitor, partial curve] | – |
| CNc1ccccc(C(=O)/C=C/c2ccccc2OC)c1=O | active: 15.8 µM | – |
| C[C@@H]1CN(Cc2nc(-c3ccc(Cl)cc3)no2)C[C@H](C)O1 | – | inactive: -10.2% |
| CCCOC(=S)NC(=O)c1sc2ccccc2c1Cl | inconclusive: 39.8 µM [inhibitor, single point] | – |
| O=C(NCc1ccco1)c1cnn2c1NC(c1ccc(Br)cc1)CC2C(F)(F)F (stereo not given) | – | inactive: -13.1% |
| O=C(O)C(Cc1ccccc1)N1C(=O)/C(=C/c2ccccc2)SC1=S (stereo not given) | inconclusive: 35.5 µM [inhibitor, single point] | – |
| Cc1cc(N2CCN(c3cc(Cl)ccc3C)CC2)n2nc(-c3ccccc3)nc2n1 | inconclusive: 0.891 µM [inhibitor, full curve, poor fit] | – |
| O=C(O)C(CC1CCCCC1)N1CCS(=O)(=O)CC1 (stereo not given) | – | inactive: 2.65% |
| Cc1c(C(=O)Nc2ccc3c(c2)OCO3)sc2nc(-c3ccccc3)cn12 | inconclusive: 0.794 µM [inhibitor, full curve] | – |
| COc1ccc(NC(=S)NCC2CCN(c3ccc(OC)cc3)C2)cc1 (stereo not given) | inconclusive: 12.6 µM [inhibitor, partial curve] | – |
| O=C(CCC(=O)Nc1ccc(Br)cc1)N/N=C/c1cc([N+](=O)[O-])ccc1O | inconclusive: 1.78 µM [inhibitor, full curve, poor fit] | – |
| COc1ccc2c(c1)c(=O)oc1cc(OCC(=O)N3CCc4ccccc4C3)ccc12 | inconclusive: 1 µM [inhibitor, full curve] | – |
| O=C(Cc1nc2ccccc2s1)c1ccc(O)cc1O | inconclusive: 14.1 µM [inhibitor, partial curve] | – |
| CCOc1ccc(CNC(=O)C2=Cc3cccc(OC)c3OC2)cc1 | – | inactive: -6.52% |
| Cn1c(/C(C#N)=C/c2cccc(O)c2)nc2ccccc21 | inconclusive: 31.6 µM [inhibitor, single point] | – |
| CCOc1ccc(Cn2c(CNS(=O)(=O)c3ccc(C(C)(C)C)cc3)nc3cccnc32)cc1 | – | inactive: -16.6% |
| CC1CCN(C(=S)c2ccc(O)cc2)CC1 | inconclusive: 25.1 µM [inhibitor, partial curve] | – |
| O=C(Nc1cccc(OCc2cc(=O)n3ccccc3n2)c1)Nc1cccc(C(F)(F)F)c1 | – | inactive: 2.44% |

| Structure (SMILES) | Potency | activity, negative = inhibition |
| --- | --- | --- |
| COc1ccc(CCC(=O)Nc2ccc(N3CCOCC3)cc2)cc1 | inconclusive: 11.2 µM [inhibitor, partial curve] | – |
| Cc1nn(-c2ccccn2)c2nc(-c3cccs3)cc(C(=O)NCc3ccco3)c12 | inconclusive: 22.4 µM [inhibitor, partial curve, poor fit] | – |
| COc1ccc(C2CC(c3ccc(F)cc3)Nc3nc(N)nn32)cc1 (stereo not given) | – | inactive: -4.75% |
| COc1cccc(OCc2nnc(SCC(=O)NCc3ccco3)n2CCc2ccccc2)c1 | inconclusive: 20 µM [inhibitor, single point] | – |
| CC(=O)Nc1ccc(SCC(=O)c2cc(C)n(-c3ccccc3)c2C)cc1 | inconclusive: 20 µM [inhibitor, single point] | – |
| CCOc1ccccc1CNC(=O)c1oc2c(c1C)-c1nn(Cc3cccc(Cl)c3)cc1CC2 | inconclusive: 11.2 µM [inhibitor, partial curve] | – |
| O=C(Cc1ccccc1)N/N=C/c1cc(Br)cc(Cl)c1O | inconclusive: 12.6 µM [inhibitor, partial curve] | – |
| COc1ccc(NC(=O)CCCN2C(=O)CCn3nc(-c4cn(C)c5ccccc45)cc32)cc1 | inconclusive: 14.1 µM [inhibitor, partial curve] | – |
| CCCOc1cccc(C(=O)NC(=S)Nc2cccc(C(F)(F)F)c2)c1 | inconclusive: 7.94 µM [inhibitor, partial curve] | – |
| CC(O)CNc1ccc(-c2nn(C)c(=O)c3ccccc23)cc1[N+](=O)[O-] (stereo not given) | inconclusive: 20 µM [inhibitor, single point] | – |
| Cc1ccc(C(C(=O)NC2CCCCC2)N2CCCC2)cc1 (stereo not given) | – | inactive: -5.43% |
| COc1ccc(CNC(=O)C2CCN(C(=O)N3CCOc4ccc(Cl)cc43)CC2)cc1 | inconclusive: 22.4 µM [inhibitor, partial curve, poor fit] | – |
| N/C(=N\NC(=O)c1cccc(F)c1)c1cc2ccccc2oc1=O | inconclusive: 22.4 µM [inhibitor, partial curve, poor fit] | – |
| O=C(CSc1nnnn1-c1ccccc1)c1ccc(O)cc1O | – | inactive: -14.6% |
| COc1c(C)cc(NS(=O)(=O)c2ccc3c(c2)OCCO3)cc1C | – | inactive: -4.25% |
| CCOc1ccc(NC(=O)CCNS(=O)(=O)c2cccs2)cc1 | inconclusive: 22.4 µM [inhibitor, single point] | – |
| COc1cc(OC)c(/C=N/NC(=O)c2ccc([N+](=O)[O-])cc2)cc1Br | inconclusive: 2.24 µM [inhibitor, full curve] | – |
| COC(=O)c1ccc(-c2ccc(C(c3c(C)[nH][nH]c3=O)c3c(C)[nH][nH]c3=O)o2)cc1 | active: 5.01 µM | – |
| CNc1nnc(-c2cc3cc(Cl)ccc3oc2=O)s1 | inconclusive: 3.16 µM [inhibitor, full curve] | – |
| c1ccc(OCc2nn3c(C4CCCCC4)nnc3s2)cc1 | – | inactive: -11.3% |
| NCc1c(O)ccc2ccccc12 | inconclusive: 14.1 µM [inhibitor, partial curve, poor fit] | – |
| COc1cccc(C2/C(=C(/O)c3cnn(-c4ccccc4)c3C)C(=O)C(=O)N2CCN(C)C)c1OC (stereo not given) | inconclusive: 15.8 µM [inhibitor, partial curve] | – |

| Structure (SMILES) | Potency | activity, negative = inhibition |
| --- | --- | --- |
| CC1CC(C)CN(C(=O)CSc2nc(N)cc(=O)[nH]2)C1 (stereo not given) | – | inactive: 3.88% |
| Cc1cc(C)nc(SCc2nnc(SCC(=O)Nc3nccs3)n2C)n1 | – | inactive: -2.31% |
| COc1c(C)cccc1C(=O)Nc1ccc(N2CCN(S(C)(=O)=O)CC2)cc1 | inconclusive: 12.6 µM [inhibitor, partial curve] | – |
| CN(C)c1ccc(N=c2sc3ccccc3n2C)cc1 | inconclusive: 12.6 µM [inhibitor, partial curve] | – |
| COc1ccc2c(CC(=O)NCCN3C(=O)S/C(=C\c4cccnc4)C3=O)coc2c1 | inconclusive: 20 µM [inhibitor, partial curve] | – |
| O=C(N/N=C/c1ccc(Br)s1)c1ccc([N+](=O)[O-])cc1 | inconclusive: 1.41 µM [inhibitor, full curve] | – |
| CC(C)CCNc1nc(N2CCCC2)c2c(c1C#N)CCN(C)C2 | inconclusive: 14.1 µM [inhibitor, partial curve] | – |
| CCOC(=O)/C(C#N)=C\c1ccc(OCC(=O)Nc2ccc(C)cc2C)c(OC)c1 | inconclusive: 1.12 µM [inhibitor, partial curve, poor fit] | – |
| Cc1onc(-c2ccccc2)c1C(=O)Nc1sc2c(c1C#N)CCC2 | inconclusive: 17.8 µM [inhibitor, partial curve] | – |
| CCCC(=O)n1nc(-c2ccco2)nc1SCc1ccccc1 | – | inactive: 2.99% |
| O=S(=O)(Nc1nc2ccccc2nc1NCC1CCCO1)c1cc(Cl)ccc1Cl (stereo not given) | inconclusive: 22.4 µM [inhibitor, partial curve, poor fit] | – |
| COc1ccccc1-c1nnc(SCC(=O)c2ccc(C3CCCCC3)cc2)n1Cc1ccco1 | inconclusive: 14.1 µM [inhibitor, partial curve] | – |
| CCOc1ccc(C(=O)NCc2nc(-c3ccc(Cl)cc3)no2)cc1OCC | – | inactive: 10.9% |
| OCCN1CCN(c2ncnc3c2sc2nc(N4CCOCC4)c4c(c23)CCC4)CC1 | inconclusive: 17.8 µM [inhibitor, partial curve, poor fit] | – |
| O=C(/C=C/c1ccco1)N(Cc1ccccc1)C1CCS(=O)(=O)C1 (stereo not given) | inconclusive: 20 µM [inhibitor, partial curve] | – |
| COc1ccc(N2CCN(c3cc(C)c4cccc(C)c4n3)CC2)cc1 | inconclusive: 15.8 µM [inhibitor, partial curve] | – |
| COc1ccc(NC(=O)COC(=O)/C=C/c2cnc3ccccc3n2)cc1 | inconclusive: 31.6 µM [inhibitor, single point] | – |
| CCN1C(=O)[C@H]2[C@H]3[C@H](O)[C@H](O)C/C(=N/O[C@@H]4O[C@H](COC(C)=O)[C@@H](OC(C)=O)[C@H](OC(C)=O)[C@H]4OC(C)=O)[C@@H]3CC[C@@H]2C1=O | – | inactive: -3.08% [at 11.5 µM] |
| C=CCn1c(=NC(=O)c2cc(-c3cccs3)nc3ccccc23)sc2cc(S(N)(=O)=O)ccc21 | inconclusive: 31.6 µM [inhibitor, partial curve, poor fit] | – |
| CCc1ccc(C2C(C#N)=C(N)SC(N)=C2C#N)cc1 | inconclusive: 25.1 µM [inhibitor, single point] | – |
| CC(=O)O[C@@]1(C(C)=O)CCC2C3C=C(Cl)C4=CC(=O)C5CC5[C@@]4(C)C3CC[C@]21C (stereo not given in full) | inconclusive: 22.4 µM [inhibitor, partial curve, poor fit] | – |
